# Hit rate of the full screen: of about 310,000 compounds, about 2,200 (0.71%) showed an effect of 50% or more. The effect is printed as a negative number. This is one part of the list.
# Biological target: human ether-à-go-go-related gene (hERG) potassium channel (human, UniProt Q12809)
# Assay: primary screen, population patch clamp on CHO cells stably expressing hERG
# human ether-à-go-go-related gene (hERG) potassium channel, sequence (Q12809 whole entry, looked up): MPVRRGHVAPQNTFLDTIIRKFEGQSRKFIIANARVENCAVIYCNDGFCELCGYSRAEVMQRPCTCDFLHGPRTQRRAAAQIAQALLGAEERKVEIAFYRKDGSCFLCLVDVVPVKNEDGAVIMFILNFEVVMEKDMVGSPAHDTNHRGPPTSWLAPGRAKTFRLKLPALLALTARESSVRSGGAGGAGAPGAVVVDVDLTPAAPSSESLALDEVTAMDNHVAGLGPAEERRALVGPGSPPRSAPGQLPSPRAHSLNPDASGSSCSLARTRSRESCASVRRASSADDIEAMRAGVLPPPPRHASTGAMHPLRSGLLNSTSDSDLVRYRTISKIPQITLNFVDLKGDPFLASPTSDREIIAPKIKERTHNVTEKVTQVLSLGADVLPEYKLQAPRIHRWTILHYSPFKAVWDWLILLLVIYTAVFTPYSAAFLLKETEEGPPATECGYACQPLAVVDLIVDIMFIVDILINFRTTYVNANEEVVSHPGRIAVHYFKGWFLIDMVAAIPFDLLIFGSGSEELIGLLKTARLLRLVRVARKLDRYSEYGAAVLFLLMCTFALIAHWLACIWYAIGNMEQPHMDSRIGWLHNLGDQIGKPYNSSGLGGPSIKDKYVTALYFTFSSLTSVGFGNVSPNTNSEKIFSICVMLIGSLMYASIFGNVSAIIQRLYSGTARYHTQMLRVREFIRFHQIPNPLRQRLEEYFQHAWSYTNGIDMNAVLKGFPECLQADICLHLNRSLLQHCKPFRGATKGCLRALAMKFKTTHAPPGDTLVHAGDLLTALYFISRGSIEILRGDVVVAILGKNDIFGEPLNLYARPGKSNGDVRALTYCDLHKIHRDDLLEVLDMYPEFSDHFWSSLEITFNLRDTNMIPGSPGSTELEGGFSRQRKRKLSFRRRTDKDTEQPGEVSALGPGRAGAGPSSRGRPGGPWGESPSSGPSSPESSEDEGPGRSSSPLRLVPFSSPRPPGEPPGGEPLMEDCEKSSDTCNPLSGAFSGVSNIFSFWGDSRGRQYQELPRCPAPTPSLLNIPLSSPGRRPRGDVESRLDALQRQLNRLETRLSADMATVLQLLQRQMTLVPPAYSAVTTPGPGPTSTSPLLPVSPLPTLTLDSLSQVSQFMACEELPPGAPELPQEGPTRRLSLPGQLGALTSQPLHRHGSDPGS
row,Structure (SMILES),"hERG current change (%, negative = inhibition) at 1uM [%]"
1,Cc1cc(=O)n2[nH]c(-c3sccc3-n3c(C)ccc3C)cc2n1,8.77
2,Cc1cc(OCCN2CCOCC2)ccc1Cl,11.8
3,O=C(Nc1nccs1)c1c(O)c2c(n(Cc3ccco3)c1=O)CCCC2,13.9
4,Fc1ccc(Cn2nnc(-c3ccc(CN4CCOCC4)cc3)n2)cc1,-1.65
5,COc1ccc(OC)c(S(=O)(=O)N2CCC(C(=O)NCc3ccc4c(c3)OCO4)CC2)c1,1.15
6,COc1ccc(/C=C(/CC(=O)Nc2ccccc2)c2nc3ccccc3s2)cc1,3.13
7,CCn1nnc(-c2ccccc2NC(=O)c2ccc(-n3cnnn3)cc2)n1,-0.981
8,C/C(=N\NC(=O)c1cccc(N/N=C(\C)c2ccncc2)c1)c1ccncc1,-1.1
9,Cc1nn(CC(=O)Nc2ccc3c(c2)nc2n3CCOC2)c(=O)c2ccccc12,7.76
10,CC(NC(=O)/C(C#N)=C/c1cn(-c2ccccc2)nc1-c1ccc(F)cc1)c1ccccc1 (centres unmarked),8.31
11,COc1cc(C(=O)NNC(=S)Nc2ccc(S(N)(=O)=O)cc2)cc(OC)c1OC,8.57
12,CCn1nnnc1SCC(=O)N(C1CCCCC1)C1CCCCC1,-8.06
13,COc1ccc(C2=NS(=O)(=O)N(C)C(C(=O)NCc3ccco3)=C2)cc1OC,-15.5
14,Cc1nc(Nc2ccccc2F)c2nnn(Cc3ccccc3Cl)c2n1,13.7
15,COc1ccc(OCCCC(=O)NCCc2nc3ccccc3[nH]2)cc1,9.57
16,NC(=O)c1sc2nc3c(c(-c4cccnc4)c2c1N)CCC3,10.9
17,O=C(CNC(=O)C1COc2ccccc2O1)N/N=C\c1ccc(Cl)cc1 (centres unmarked),-34.9
18,COc1ccc(C)cc1-n1nnnc1SCC(=O)Nc1cc(C)on1,0.44
19,CCOC(=O)C1=C(C)NC(C)=C(C(=O)OCC)C1c1cccc(C)n1,9.44
20,Clc1ccc2ncc(-c3nnnn3-c3ccccc3)c(-c3ccccc3)c2c1,8.72
21,O=C(NNC(=O)c1ccccc1Br)c1cccc(Cl)c1,-3.87
22,CNc1sc(C(=O)c2ccc(F)cc2)c(N)c1-c1nc2ccccc2s1,5.15

row,Structure (SMILES),"hERG current change (%, negative = inhibition) at 1uM [%]"
1,CCCC(c1c(C)n(C)n(-c2ccccc2)c1=O)c1c(C)n(C)n(-c2ccccc2)c1=O,11.7
2,COc1ccc(C(=O)NCc2ccc3c(c2)OCO3)c(OC)c1,13.6
3,CCc1cc2c3c(c(=O)oc2cc1O)CCCC3,11.7
4,C(#Cc1ccccc1)CN1CCN(c2ccccn2)CC1.Cl,7.81
5,CCN1CCN(c2nc(Nc3ccc(OC)cc3)nc(N)c2[N+](=O)[O-])CC1,1.06
6,COc1ccc(-c2noc(CCCC(=O)Nc3cccnc3)n2)cc1OC,11.3
7,O=C(Nc1cccc(F)c1)/C(=C\c1ccco1)NC(=O)c1cccs1,0.665
8,CCCCCOC(=O)Nc1ccc(S(=O)(=O)Nc2cccc([N+](=O)[O-])c2)cc1,0.755
9,CCC(=O)N1CCc2cc(S(=O)(=O)CCC(=O)Nc3ccc(C)c(F)c3)ccc21,-0.0505
10,CCOC(=O)c1cc(NC(=O)COc2ccc([N+](=O)[O-])cc2)cc(C(=O)OCC)c1,2.75
11,O=S(=O)(c1ccccc1)c1nc(NCc2cccnc2)sc1Cl,-0.577
12,Clc1ccc(Cl)c(-c2nn3c(Cn4cnc5ccccc54)nnc3s2)c1,14
13,CC(C)CCOc1cccc(OCC(=O)NC2CCS(=O)(=O)C2)c1 (centres unmarked),3.43
14,COc1ccc(/C(C)=N/N2CCOCC2)c(O)c1,12.1
15,O=C(CC1NCCNC1=O)Nc1ccc2c(c1)OCO2 (centres unmarked),0.851
16,CCn1c(SCC(=O)c2cc(OC)ccc2OC)nnc1C1CC1,11.3
17,CC1Oc2ccccc2C=C1/C=N/NC(=O)c1ccccc1O (centres unmarked),0.935
18,CC(C)c1ccccc1NC(=S)N1CCN(S(=O)(=O)c2cccs2)CC1,11.9
19,CCOC(=O)c1cnc(SCc2nc(N)nc(Nc3ccccc3)n2)nc1N,12
20,Cc1cccc(C)c1OCCCCc1c(C)n[nH]c1C,1.05
21,COC(=O)CN1C(=O)C(O)(CC(=O)c2cccc(Br)c2)c2ccccc21 (centres unmarked),10.7
22,CC1(C)CC(O)(CNCc2ccc3c(c2)OCO3)CCO1 (centres unmarked),8.72

# Reference: paper PMC4336329 (PLoS ONE, 2015)
